Data as given in paper PMC11995724, “Antibiotic target discovery by integrated phenotypic and activity-based profiling of electrophilic fragments” (Cell chemical biology, 2025).
The whole screen tested about 3,200 compounds, of which about 110 (3.4%) showed an effect of 50% or more. The list shows a part of the results.

test system: T1, V. cholerae SAD30; parameters: species or system S. aureus MSSA476 (TSB) or V. cholerae SAD30 (LB); 384-well bacterial growth screen at 25 uM, OD600 relative to DMSO control; details: relative growth, OD600, LB; 25 µM; inhibitor
T1 construct: SAD30

| Structure (SMILES) | % of control remaining [%] |
| --- | --- |
| CC(Cl)C(=O)NCc1csc(-c2ccco2)n1 (centres unmarked) [7-K05, 2-chloro-N-{[2-(furan-2-yl)-1,3-thiazol-4-yl]methyl}propanamide] | 81.8107 |
| N#CC(=Cc1cc(F)ccc1F)C(=O)Nc1ccc(F)cc1 [8-E10, 2-cyano-3-(2,5-difluorophenyl)-N-(4-fluorophenyl)prop-2-enamide] | 73.6234 |
| C=CC(=O)N1CCCCC1c1nc2ccccc2n1C (centres unmarked) [3-F04, 1-[2-(1-methyl-1H-1,3-benzodiazol-2-yl)piperidin-1-yl]prop-2-en-1-one] | 96.3242 |
| CC(Cl)C(=O)Nc1ccccc1F (centres unmarked) [5-L10, 2-chloro-N-(2-fluorophenyl)propanamide] | 100.368 |
| Cc1nn(CC(C)C)c(Cl)c1C1CCCN1C(=O)CCl (centres unmarked) [5-L13, 2-chloro-1-{2-[5-chloro-3-methyl-1-(2-methylpropyl)-1H-pyrazol-4-yl]pyrrolidin-1-yl}ethan-1-one] | 95.9966 |
| N#CCCN(C(=O)CCl)c1ccccc1F [5-P07, 2-chloro-N-(2-cyanoethyl)-N-(2-fluorophenyl)acetamide] | 110.791 |
| CCn1ncc(C(=O)CCl)n1 [10-E13, 2-chloro-1-(2-ethyl-2H-1,2,3-triazol-4-yl)ethan-1-one] | 0 |
| CCn1nc(C)c(CN(C)C(=O)CCl)c1C [5-A10, 2-chloro-N-[(1-ethyl-3,5-dimethyl-1H-pyrazol-4-yl)methyl]-N-methylacetamide] | 104.907 |
| Cc1cc(C=C(C#N)C(=O)N2CC[C@H](O)C2)c(C)n1CC1CCCO1 (stereo partly drawn) [9-P04, 3-{2,5-dimethyl-1-[(oxolan-2-yl)methyl]-1H-pyrrol-3-yl}-2-[(3S)-3-hydroxypyrrolidine-1-carbonyl]prop-2-enenitrile] | 94.0177 |
| O=C(CCl)NC1C=C(c2ccc(Cl)cc2)CCC1 (centres unmarked) [7-P08, 2-chloro-N-[3-(4-chlorophenyl)cyclohex-2-en-1-yl]acetamide] | 75.8632 |
| CC(Cl)C(=O)NCc1nnc(-c2ccncc2F)s1 (centres unmarked) [7-K18, 2-chloro-N-{[5-(3-fluoropyridin-4-yl)-1,3,4-thiadiazol-2-yl]methyl}propanamide] | 77.317 |
| Cn1cc(C=C(C#N)C(=O)Nc2ccc(Oc3ccccc3)cc2)cn1 [9-M10, 2-cyano-3-(1-methyl-1H-pyrazol-4-yl)-N-(4-phenoxyphenyl)prop-2-enamide] | 88.8511 |
| CC(Cl)C(=O)NCc1cnn2ccccc12 (centres unmarked) [7-M13, 2-chloro-N-({pyrazolo[1,5-a]pyridin-3-yl}methyl)propanamide] | 89.0798 |
| CC(C)C(NC(=O)CCl)c1ccccc1 (centres unmarked) [4-K11, 2-chloro-N-(2-methyl-1-phenylpropyl)acetamide] | 94.8889 |
| C=CC(=O)Nc1cc(C)cc(S(C)(=O)=O)c1 [3-F14, N-(3-methanesulfonyl-5-methylphenyl)prop-2-enamide] | 94.3834 |
| COc1ccccc1NC(=O)C(C#N)=Cc1ccco1 [8-H08, 2-cyano-3-(furan-2-yl)-N-(2-methoxyphenyl)prop-2-enamide] | 61.5228 |
| N#CC(=Cc1ccco1)C(=O)NS(=O)(=O)N1CCc2ccccc21 [9-J18, 2-cyano-N-(2,3-dihydro-1H-indole-1-sulfonyl)-3-(furan-2-yl)prop-2-enamide] | 83.8205 |
| C=CC(=O)NCc1nc(C2CC2)cs1 [2-A19, N-[(4-cyclopropyl-1,3-thiazol-2-yl)methyl]prop-2-enamide] | 94.3646 |
| C=CC(=O)NCC(C)c1ncc(C)s1 (centres unmarked) [1-P10, N-[2-(5-methyl-1,3-thiazol-2-yl)propyl]prop-2-enamide] | 86.1138 |
| COCC1(NC(=O)C(C)Cl)CC=CCC1 (centres unmarked) [6-J13, 2-chloro-N-[1-(methoxymethyl)cyclohex-3-en-1-yl]propanamide] | 86.4537 |
| N#CC(=Cc1ccc(Cl)c([N+](=O)[O-])c1)C(=O)N1CCCC1 [9-N05, 3-(4-chloro-3-nitrophenyl)-2-(pyrrolidine-1-carbonyl)prop-2-enenitrile] | 91.1625 |
| C=CC(=O)N1CCC(C(=O)N2CCC(C(=O)NCC(C)C)CC2)CC1 [3-C17, N-(2-methylpropyl)-1-[1-(prop-2-enoyl)piperidine-4-carbonyl]piperidine-4-carboxamide] | 103.205 |
| CC(C)NC(=O)C(C#N)=Cc1ccc(-c2ccc([N+](=O)[O-])cc2)o1 [8-I19, 2-cyano-3-[5-(4-nitrophenyl)furan-2-yl]-N-(propan-2-yl)prop-2-enamide] | 66.1455 |
| C=CC(=O)NCc1ncnn1-c1ccccc1 [3-H11, N-[(1-phenyl-1H-1,2,4-triazol-5-yl)methyl]prop-2-enamide] | 91.2075 |

| Structure (SMILES) | % of control remaining [%] |
| --- | --- |
| CC(NC(=O)C(C#N)=Cc1ccccc1)C12CC3CC(CC(C3)C1)C2 (centres unmarked) [8-N20, N-[1-(adamantan-1-yl)ethyl]-2-cyano-3-phenylprop-2-enamide] | 70.2243 |
| Cn1cc(C(=O)CCl)cc1C(=O)C(Cl)(Cl)Cl [10-N22, 2,2,2-trichloro-1-[4-(2-chloroacetyl)-1-methyl-1H-pyrrol-2-yl]ethan-1-one] | 78.083 |
| Cl.O=C(CCl)NCC(c1ccccc1Cl)N1CCCC1 (centres unmarked) [6-G17, 2-chloro-N-[2-(2-chlorophenyl)-2-(pyrrolidin-1-yl)ethyl]acetamide hydrochloride] | 81.1451 |
| Cc1cc(C(=O)C(C)Cl)c(C)n1Cc1ccco1 (centres unmarked) [10-E06, 2-chloro-1-{1-[(furan-2-yl)methyl]-2,5-dimethyl-1H-pyrrol-3-yl}propan-1-one] | 94.9153 |
| O=S(=O)(CC=C(Cl)Cl)N1CCSSCC1 [10-P19, 5-(3,3-dichloroprop-2-ene-1-sulfonyl)-1,2,5-dithiazepane] | 92.5774 |
| N#CC(=Cc1cccc(-c2ccncc2)c1)C(=O)NCc1ccco1 [9-B06, 2-cyano-N-[(furan-2-yl)methyl]-3-[3-(pyridin-4-yl)phenyl]prop-2-enamide] | 87.4915 |
| COc1ccccc1CN(C)C(=O)CCl [6-C09, 2-chloro-N-[(2-methoxyphenyl)methyl]-N-methylacetamide] | 89.7905 |
| Cc1oc(C(=O)O)cc1C(=O)CCl [10-M21, 4-(2-chloroacetyl)-5-methylfuran-2-carboxylic acid] | 100.37 |
| CC(C)C(C(=O)O)N1C(=O)C=CC1=O (centres unmarked) [10-I22, 2-(2,5-dioxo-2,5-dihydro-1H-pyrrol-1-yl)-3-methylbutanoic acid] | 102.708 |
| N#CC(=Cc1ccc(-c2ccc(F)cc2)o1)C(=O)NC1CCCCC1 [9-H17, 2-cyano-N-cyclohexyl-3-[5-(4-fluorophenyl)furan-2-yl]prop-2-enamide] | 50.2379 |
| CC(=O)Nc1c(C)cc(C)c(C(=O)CCl)c1C [10-A12, N-[3-(2-chloroacetyl)-2,4,6-trimethylphenyl]acetamide] | 97.5648 |
| N#CCCSc1ccccc1NC(=O)CCl [6-N12, 2-chloro-N-{2-[(2-cyanoethyl)sulfanyl]phenyl}acetamide] | 88.5771 |
| C=CC(=O)N1CCOC(c2nccs2)C1 (centres unmarked) [3-H09, 1-[2-(1,3-thiazol-2-yl)morpholin-4-yl]prop-2-en-1-one] | 92.0897 |
| C=CC(=O)NCc1noc(-c2cccs2)n1 [3-H15, N-{[5-(thiophen-2-yl)-1,2,4-oxadiazol-3-yl]methyl}prop-2-enamide] | 89.0902 |
| C=CC(=O)N1CCCCC(S(C)(=O)=O)C1 (centres unmarked) [2-E17, 1-(3-methanesulfonylazepan-1-yl)prop-2-en-1-one] | 92.6662 |
| O=C(CCl)NCCc1ccc(Cl)cc1Cl [6-M16, 2-chloro-N-[2-(2,4-dichlorophenyl)ethyl]acetamide] | 96.0091 |
| Cc1cc(C)c(NC(=O)C(C)Cl)c(Cl)c1 (centres unmarked) [6-E10, 2-chloro-N-(2-chloro-4,6-dimethylphenyl)propanamide] | 86.1503 |
| CC(Cl)C(=O)N1CCCC(c2cnn(C)c2)C1 (centres unmarked) [7-M16, 2-chloro-1-[3-(1-methyl-1H-pyrazol-4-yl)piperidin-1-yl]propan-1-one] | 78.7709 |
| C=CC(=O)Nc1cccc2c1CCN2C(C)=O [1-F05, N-(1-acetyl-2,3-dihydro-1H-indol-4-yl)prop-2-enamide] | 92.3767 |
| O=C(CCl)NCCS(=O)(=O)N1CCc2ccccc21 [6-H04, 2-chloro-N-[2-(2,3-dihydro-1H-indole-1-sulfonyl)ethyl]acetamide] | 103.138 |
| C=CC(=O)Nc1ccccc1-n1nccn1 [3-H10, N-[2-(2H-1,2,3-triazol-2-yl)phenyl]prop-2-enamide] | 92.7954 |
| O=C(CCl)Nc1ccccc1F [4-M16, 2-chloro-N-(2-fluorophenyl)acetamide] | 98.3394 |
| O=C(CCl)NCC1CCCCN1C(=O)C(F)(F)F (centres unmarked) [5-C07, 2-chloro-N-{[1-(2,2,2-trifluoroacetyl)piperidin-2-yl]methyl}acetamide] | 100.536 |
